From patent US4602011A, “Antimicrobial compositions and methods of using same” (Chapman Chemical Company, priority 1982, dated 1986) come the findings set out here.

Holding throughout (assay): minimum bactericidal concentration
One assay deals with Bacillus cereus.
The next assay relates to Escherichia coli (11229). The settings on record: for MBC: Escherichia coli, 24 h, read-out: Minimum bactericidal concentration.
Assay [1] concerns Bacillus lichenforms (27326).
Assay [2] deals with Staphylococcus aureus (6538). In kind it is cell-based. The settings on record: for MBC: Staphylococcus aureus, 24 h, read-out: Minimum bactericidal concentration.
Assay [3] has as its system Pseudomonas aeruginosa (15442). The settings on record: for MBC: Pseudomonas aeruginosa, 24 h, read-out: Minimum bactericidal concentration.
Assay [4] has as its system Bacillus subtillis (37328). In kind it is cell-based, Bacillus subtilis.
Assay [5] has as its system Mycobacterium phlei (15610). Format: cell-based.
The test system of the next assay is Salmonella typhi (6539). Format: cell-based.
The test system of assay [6] is Bacillus megaterium (27327). To be noted: ppm of active ingredient; "1" means 1 or less.
Assay [7] deals with Alcaligenes marshalii (21030). The settings on record: ppm of active ingredient.
Assay [8] concerns Flavobacterium arboresceus (4358). To be noted: ppm of active ingredient.
A further assay has as its system Proteus vulgaris. To be noted: ppm of active ingredient.
Assay [9] deals with Alcaligenes faecalis (337). To be noted: ppm of active ingredient.
Assay [10] relates to Klebsiella pneumoniae (4356). The settings on record: ppm of active ingredient.
Where [11] appears, read: Bacillus, 24 h, read-out: Minimum bactericidal concentration.
Setting [12] is: ppm of active ingredient, "1" means 1 or less.

Values after ≈ are worked out from the molar mass of the structure shown.

For `Oc1c(Cl)c(Cl)c(Cl)c(Cl)c1Cl` [F], the MBC was 5 to 10 µg/mL (≈ 18.8 to 37.5 µM) in the assay on Bacillus cereus (Bacillus cereus, 24 h, read-out: Minimum bactericidal concentration); 250 to 500 µg/mL (≈ 939 to 1880 µM) with Escherichia coli (11229); 2 to 5 µg/mL (≈ 7.51 to 18.8 µM) in assay [1] (setting [11]); 1 to 3 µg/mL (≈ 3.75 to 11.3 µM) in assay [2]; 1000 to 2500 µg/mL (≈ 3750 to 9390 µM) in assay [3].

Regarding `CCCS(=O)(=O)c1c(Cl)cnc(Cl)c1Cl` [G], the MBC in the assay with Escherichia coli (11229) stood at 165 µg/mL (≈ 572 µM); in assay [2] it was 3 µg/mL (≈ 10.4 µM); in assay [4] (setting [11]) it was 3 µg/mL (≈ 10.4 µM); in [5] (Mycolicibacterium phlei, 24 h, read-out: Minimum bactericidal concentration) it was 3 µg/mL (≈ 10.4 µM); in the assay with Salmonella typhi (6539) (Salmonella enterica, TYPHI, 24 h, read-out: Minimum bactericidal concentration), 165 µg/mL (≈ 572 µM); in assay [3], 165 µg/mL (≈ 572 µM).

For `CCCCCCCCCCCCc1ccc(S(=O)(=O)O)cc1` [DDBSA, dodecyl benzene sulfonic acid], the Minimum bactericidal concentration is given as 100 ppm with Bacillus cereus (setting [12]); 100 ppm in assay [6]; 100 ppm in [7]; 10 ppm in assay [8]; 10,000 ppm with Escherichia coli (11229) (ppm of active ingredient); 100 ppm in assay [1] (setting [12]). In addition, the Minimum bactericidal concentration in the assay on Proteus vulgaris is reported as 1000 ppm; in [2] (setting [12]), 100 ppm; in [4] (setting [12]), 100 ppm; in assay [5] (setting [12]), 10 ppm; in [9], 1000 ppm; with Salmonella typhi (6539) (ppm of active ingredient), 1000 ppm. Also, the Minimum bactericidal concentration in assay [10] was 10,000 ppm; in assay [3] (ppm of active ingredient), 1000 ppm.
